The campaign covered roughly 2,000 compounds. About 110 (5.5%) showed an effect of 50% or more. The list shows a part of the results.
Target: Genome polyprotein (dengue virus type 2) (UniProt P29990)
[1] = Thailand/16681/1984, Concentration 25.0 uM, Number of replicates 1.0

`NCc1cccc(NC(=O)[C@H]2CCN(C(=O)OCc3ccccc3)C2)c1` was tested, and the inhibition (Thailand/16681/1984, Concentration 49.5 uM, Number of replicates 2.0, Standard deviation 1.9221944810499825 %) was -1.99%, the inhibition (Thailand/16681/1984, Concentration 99.01 uM, Number of replicates 2.0, Standard deviation 1.6664051520702452 %) was -1.6% and the inhibition (Thailand/16681/1984, Concentration 198.0 uM, Number of replicates 2.0, Standard deviation 2.955416090340052 %) was -1.98%.

With `CCc1ccc(CN(CC(C)C)C(=O)C2CCN(c3ccc(C=O)cc3)CC2)cc1` the inhibition [1] was 13.3%.

With `O=Cc1ccc(N2CCC(C(=O)NCC3CCC(C(F)(F)F)CC3)CC2)cc1` (centres undefined) the inhibition [1] was 12.8%.

`COc1ccc(CN(C)C(=O)C2CCN(c3ccc(C=O)cc3)CC2)cc1O` gave an inhibition [1] of 12%.

With `CCCCCC(=O)N[C@H](C(=O)NCc1cccc(CN)c1)C1CCOCC1` the inhibition (Thailand/16681/1984, Concentration 49.5 uM, Number of replicates 2.0, Standard deviation 0.3191238144371867 %) was -0.317%, the inhibition (Thailand/16681/1984, Concentration 99.01 uM, Number of replicates 2.0, Standard deviation 0.8995270800981244 %) was -1.52% and the inhibition (Thailand/16681/1984, Concentration 198.0 uM, Number of replicates 2.0, Standard deviation 0.867663767595949 %) was -1.86%.

`CNC(=O)c1cc(Cl)ccc1NS(=O)(=O)Cc1ncoc1C(F)F` gave an inhibition (Thailand/16681/1984, Concentration 49.5 uM, Number of replicates 2.0, Standard deviation 0.011958915383875116 %) of -9.8%.

`O=Cc1ccc(N2CCC(C(=O)N3CCN(c4ccc([N+](=O)[O-])cc4C(F)(F)F)CC3)CC2)cc1` was tested, and the inhibition [1] was 16.7%.

In the case of `O=Cc1ccc(N2CCC(C(=O)N3CCn4c(nnc4C(F)(F)F)C3)CC2)cc1`, the inhibition [1] is reported as 14.7%.

For `N#C[C@@H](NC(=O)C1CCN(c2ccc(C=O)cc2)CC1)c1ccc(F)cc1`, the inhibition [1] was 13.8%.

`COc1cc(CS(=O)(=O)C2CCOCC2)nc(N2CCNCC2)n1` was tested, and the inhibition (Thailand/16681/1984, Concentration 49.5 uM, Number of replicates 2.0, Standard deviation 2.171535110399886 %) was 0.445%, the inhibition (Thailand/16681/1984, Concentration 99.01 uM, Number of replicates 2.0, Standard deviation 1.244444665725213 %) was 0.302% and the inhibition (Thailand/16681/1984, Concentration 198.0 uM, Number of replicates 2.0, Standard deviation 0.8896322631561329 %) was 0.625%.

Molecule `O=Cc1ccc(N2CCC(C(=O)NCc3cc(Cl)cc(Cl)c3)CC2)cc1` has an inhibition [1] of 1.55%.

With `CCCC[C@H](NC(C)=O)C(=O)N[C@H](C(=O)NCc1ccc(CN)cc1)c1ccccc1` the inhibition (Thailand/16681/1984, Concentration 49.5 uM, Number of replicates 2.0, Standard deviation 1.3580554366166637 %) was 0.537%, the inhibition (Thailand/16681/1984, Concentration 99.01 uM, Number of replicates 2.0, Standard deviation 18.440494023113153 %) was 14.1% and the inhibition (Thailand/16681/1984, Concentration 198.0 uM, Number of replicates 2.0, Standard deviation 14.8908767477505 %) was 56%.

`COc1ccc(C)cc1NC(=O)CNC(=O)C1CCN(c2ccc(C=O)cc2)CC1` was tested, and the inhibition [1] was 13.8%.

`O=Cc1ccc(N2CCC(C(=O)Nc3cc(Cl)c(F)cc3F)CC2)cc1` showed an inhibition [1] of 14.9%.

Work on `c1ccc2c([C@H]3CCN(Cc4cnc5ccccn45)C3)c[nH]c2c1` yielded an inhibition (Thailand/16681/1984, Concentration 49.5 uM, Number of replicates 2.0, Standard deviation 0.7151563656367946 %) of 1.09%, an inhibition (Thailand/16681/1984, Concentration 99.01 uM, Number of replicates 2.0, Standard deviation 0.3281880684602654 %) of 2.8% and an inhibition (Thailand/16681/1984, Concentration 198.0 uM, Number of replicates 2.0, Standard deviation 0.2432837478972515 %) of 4.76%.

`O=Cc1ccc(N2CCC(C(=O)N3CCN(C(=O)Cc4ccccc4)CC3)CC2)cc1` gave an inhibition [1] of 12.3%.

With `CC(C)(CO)NC(=O)c1cc(Cl)cc(NC(=O)c2c[nH]c(C(=O)N3CCCC3)c2)c1` the inhibition (Thailand/16681/1984, Concentration 49.5 uM, Number of replicates 2.0, Standard deviation 0.9785954951352289 %) was -0.782%, the inhibition (Thailand/16681/1984, Concentration 99.01 uM, Number of replicates 2.0, Standard deviation 1.3032331973706335 %) was -0.088% and the inhibition (Thailand/16681/1984, Concentration 198.0 uM, Number of replicates 2.0, Standard deviation 0.3823857967784853 %) was 0.634%.

For `O=Cc1ccc(N2CCC(C(=O)Nc3nc4[nH]cnc4c(=O)[nH]3)CC2)cc1`, the inhibition [1] was 12.7%.

`Cc1ccc(C[C@H]2CCCN(C(=O)C3CCN(c4ccc(C=O)cc4)CC3)C2)cc1` showed an inhibition [1] of 11.2%.

Molecule `COc1cc(COCc2cccnc2OC)nc(N2CCNCC2)n1` has an inhibition (Thailand/16681/1984, Concentration 49.5 uM, Number of replicates 2.0, Standard deviation 1.1112599079343632 %) of -1.61%, an inhibition (Thailand/16681/1984, Concentration 99.01 uM, Number of replicates 2.0, Standard deviation 0.08428096867353778 %) of 0.635% and an inhibition (Thailand/16681/1984, Concentration 198.0 uM, Number of replicates 2.0, Standard deviation 0.32567822363144167 %) of 1.43%.

Molecule `O=Cc1ccc(N2CCC(C(=O)Nc3ccc4cc(Br)ccc4c3)CC2)cc1` has an inhibition [1] of 11.2%.

Molecule `CC(C)c1nc(CN(C)C(=O)C2CCN(c3ccc(C=O)cc3)CC2)cs1` has an inhibition [1] of 15.9%.

With `O=c1c(N2CC[C@H](CO)C2)nccn1C1CC1` the inhibition (Thailand/16681/1984, Concentration 49.5 uM, Number of replicates 2.0, Standard deviation 2.4482264734756005 %) was 8.46%, the inhibition (Thailand/16681/1984, Concentration 99.01 uM, Number of replicates 2.0, Standard deviation 2.8900822321462307 %) was 18% and the inhibition (Thailand/16681/1984, Concentration 198.0 uM, Number of replicates 2.0, Standard deviation 2.1394185374850085 %) was 33.2%.

For `CS(=O)(=O)C1CCN(C(=O)C2CCN(c3ccc(C=O)cc3)CC2)CC1`, the inhibition [1] was 13.4%.

`NCc1cccc(NC(=O)CCN2C(=O)OCc3ccccc32)c1` showed an inhibition (Thailand/16681/1984, Concentration 49.5 uM, Number of replicates 2.0, Standard deviation 2.5679236918339337 %) of -3.54%, an inhibition (Thailand/16681/1984, Concentration 99.01 uM, Number of replicates 2.0, Standard deviation 2.2564444885847212 %) of -3.95% and an inhibition (Thailand/16681/1984, Concentration 198.0 uM, Number of replicates 2.0, Standard deviation 3.0791944670650357 %) of -5.2%.

For `O=Cc1ccc(N2CCC(C(=O)Nc3ccc(Br)nc3)CC2)cc1`, the inhibition [1] was 14%.

Source: ChEMBL document CHEMBL5606460, “ASAP - DENV-2 NS2B-NS3 protease fluorescence single point” (2024)
